{"source": "PubChem BioAssay AID1508623", "about": "(National Center for Advancing Translational Sciences (NCATS), 2021)", "note": "The whole screen tested about 48,000 compounds, of which about 450 (0.94%) were called active. Inconclusive means that the source gave no clear call. Such entries were picked first, then a sample of the others. The call rests on the fitted dose curve; in most records, active means well fitted inhibition curve with a large enough effect; inconclusive means small, poorly fitted or top-dose-only effect; inactive means no such curve, though single readings can be large or run the other way. Potencies of inconclusive entries are doubtful fits and often do not repeat. Potency means the concentration at half of the fitted maximal effect; tags describe the fitted curve by direction and shape.", "data": [{"assay": "Primary qHTS for Identification of Small Molecule Inhibitors of Huntingtin Promoter Activity; further: nearly all actives have a fitted effect of over 50% in size", "conditions": "HEK293 HTT promoter firefly luciferase reporter (activity 0% = vehicle and -100% = no light), 24 h; series mostly up to 57.5 µM", "in_short": "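Quantitative HTS used concentration series of up to 57.5 uM final on HEK293 luciferase reporter cells, 24 h at 37 degrees C. Readout was Dual-Glo firefly luminescence.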", "values": [{"smiles": "COc1ccc(CNC(=O)Cn2c(SCC(=O)Nc3ccc(C)c(C)c3)nc3ccccc32)cc1", "Potency": "inconclusive: 39.8 µM [inhibitor, single point]"}, {"smiles": "COc1ccc(S(=O)(=O)NCCc2csc(-c3ccc(F)cc3)n2)cc1", "Potency": "inactive"}, {"smiles": "COc1ccc(C(=O)Nc2ccc3nc(SCC(=O)N4CCCc5ccccc54)sc3c2)cc1", "Potency": "inconclusive: 17.8 µM [inhibitor, partial curve, poor fit]"}, {"smiles": "CCN(C(=O)c1oc2ccc(S(=O)(=O)N3CCCCCC3)cc2c1C)c1ccccc1", "Potency": "inconclusive: 39.8 µM [inhibitor, single point]"}, {"smiles": "COc1cc(C2CC(=O)c3c([nH]c(C(=O)OC4CCCCC4)c3C)C2)cc(OC)c1OC", "note": "(configuration not stated)", "Potency": "inconclusive: 3.98 µM [inhibitor, single point]"}, {"smiles": "CCCCn1c2ccc(F)cc2c2nnc(SCCN(CC)CC)nc21", "Potency": "inactive"}, {"smiles": "Cc1ccc(CNC(=O)c2c3c(nc4ccccc24)C(=O)N(C2CCCCC2)C3)cc1", "Potency": "inconclusive: 35.5 µM [inhibitor, single point]"}, {"smiles": "FC(F)c1nc2ccccc2n1-c1nc(N2CCOCC2)nc(N2CCOCC2)n1", "Potency": "inconclusive: 0.769 µM [inhibitor, full curve, poor fit]"}, {"smiles": "COc1ccc(Cl)cc1NC(=O)CSc1nccn1Cc1ccco1", "Potency": "inconclusive: 39.8 µM [inhibitor, single point]"}, {"smiles": "Cc1csc2nc(COC(=O)c3ccccc3NC(=O)c3ccc(F)cc3)cc(=O)n12", "Potency": "inconclusive: 3.55 µM [inhibitor, partial curve, poor fit]"}, {"smiles": "CCCN(C(=O)CCc1nc(-c2ccccc2F)no1)c1ccc(CC)cc1", "Potency": "inconclusive: 22.4 µM [inhibitor, single point]"}, {"smiles": "Cc1ccc(C)c(N2CCN(C(=O)c3ccc(CS(=O)(=O)c4ccc(Br)cc4)o3)CC2)c1", "Potency": "inconclusive: 22.4 µM [inhibitor, single point]"}, {"smiles": "Cc1cccc(N2CCN(C(=O)Cn3c(=O)c4cccn4c4ccc(F)cc43)CC2C)c1", "note": "(configuration not stated)", "Potency": "inactive"}, {"smiles": "Cc1ccc(CNC(=O)C(C(C)C)N2Cc3ccccc3C2=O)cc1", "note": "(configuration not stated)", "Potency": "inconclusive: 39.8 µM [inhibitor, single point]"}, {"smiles": "O=C(NC1CCCCC1)c1ccc(Cn2c(SCc3cccc(F)c3)nc3cccnc32)cc1", "Potency": "inconclusive: 39.8 µM [inhibitor, single point]"}, {"smiles": "O=C(CCc1nc(-c2ccccc2F)no1)Nc1cccc(C(F)(F)F)c1", "Potency": "inconclusive: 22.4 µM [inhibitor, partial curve, poor fit]"}, {"smiles": "Cc1ccc(C)c(N2CCN(C(=O)c3cccc(-n4c(C)nc5cccnc54)c3)CC2)c1", "Potency": "inconclusive: 17.8 µM [inhibitor, partial curve, poor fit]"}, {"smiles": "Cc1ccc(CC(=O)N(Cc2nc(-c3ccc(C)cc3)no2)C(C)C)cc1", "Potency": "inconclusive: 39.8 µM [inhibitor, single point]"}, {"smiles": "COCCCNc1ncnc2c1c(-c1ccccc1)cn2-c1ccc(C)c(Cl)c1", "Potency": "inactive"}, {"smiles": "CCn1c(CN2CCN(c3cccc(Cl)c3)CC2)nc2c1c(=O)[nH]c(=O)n2C", "Potency": "inconclusive: 25.1 µM [inhibitor, partial curve, poor fit]"}, {"smiles": "O=C(COc1ccc(Cl)cc1)Nc1cc(-c2ccccc2)no1", "Potency": "inactive"}, {"smiles": "OC1(c2ccc(Cl)c(C(F)(F)F)c2)CCN(CCCC(c2ccc(F)cc2)c2ccc(F)cc2)CC1", "Potency": "inconclusive: 39.8 µM [inhibitor, single point]"}, {"smiles": "COc1ccc(OC)c(NC(=O)CN2C(=O)CC(c3ccco3)Sc3ccccc32)c1", "note": "(configuration not stated)", "Potency": "inconclusive: 39.8 µM [inhibitor, single point]"}, {"smiles": "Cc1ccc(C2CCN(C(=O)c3cnn(-c4ccccc4Cl)c3C3CCN(C(=O)OC(C)(C)C)CC3)C2)cc1", "note": "(configuration not stated)", "Potency": "inconclusive: 28.2 µM [inhibitor, single point]"}, {"smiles": "NC(=NCCCCCCN=C(N)N=C(N)Nc1ccc(Cl)cc1)N=C(N)Nc1ccc(Cl)cc1", "Potency": "inactive"}, {"smiles": "Cc1c(F)cccc1NC(=O)C1CCCN1S(=O)(=O)c1ccc(F)cc1", "note": "(configuration not stated)", "Potency": "inconclusive: 25.1 µM [inhibitor, partial curve, poor fit]"}, {"smiles": "Cc1ccc(C(=O)Nc2cccc(C(=O)OCc3cc(=O)n4c5c(sc4n3)CCCC5)c2)cc1", "Potency": "inconclusive: 39.8 µM [inhibitor, single point]"}, {"smiles": "Cc1ccc(NC(=O)C2CCCN(S(=O)(=O)c3cccc4cccnc34)C2)cc1Cl", "note": "(configuration not stated)", "Potency": "inconclusive: 22.4 µM [inhibitor, partial curve, poor fit]"}, {"smiles": "Cc1ccc2[nH]cc(C(c3ccccc3)c3cccs3)c2c1", "note": "(configuration not stated)", "Potency": "inconclusive: 22.4 µM [inhibitor, partial curve, poor fit]"}, {"smiles": "COc1cc(OC)c(NC(=O)c2ccc3nc(C(C)C)oc3c2)cc1Cl", "Potency": "inconclusive: 39.8 µM [inhibitor, single point]"}, {"smiles": "Cc1ccc(C)c(NC(=O)N2CC=C(c3c[nH]c4ccccc34)CC2)c1", "Potency": "inconclusive: 5.01 µM [inhibitor, full curve]"}, {"smiles": "Cc1cccc(N(C)C(=O)C(Cc2ccccc2)NS(=O)(=O)c2cccc3nsnc23)c1", "note": "(configuration not stated)", "Potency": "inconclusive: 0.282 µM [inhibitor, single point]"}, {"smiles": "O=C(Cn1c(-c2cccs2)cc2cc(Cl)ccc21)NCc1ccccc1", "Potency": "inconclusive: 15.8 µM [inhibitor, partial curve, poor fit]"}, {"smiles": "Cc1cccc(NC(=O)Cn2cc(S(=O)(=O)c3ccc(F)cc3)c(=O)c3cc4c(cc32)OCO4)c1", "Potency": "inconclusive: 5.62 µM [inhibitor, partial curve]"}, {"smiles": "Cc1ccc(-c2c(C(=O)N3CCN(c4cccc(C)c4C)CC3)oc(=O)c3ccccc23)cc1", "Potency": "inconclusive: 28.2 µM [inhibitor, partial curve, poor fit]"}, {"smiles": "CCC(=O)N1CCc2cc(Br)cc(S(=O)(=O)NCCc3ccccc3Cl)c21", "Potency": "inconclusive: 39.8 µM [inhibitor, single point]"}, {"smiles": "COc1ccc(OC)c(CCNC(=O)c2cc3c(-c4ccccc4F)nn(C)c3s2)c1", "Potency": "inconclusive: 12.6 µM [inhibitor, partial curve]"}]}]}
